# Measured values published in the supplement of paper PMC8728848.
# Some of the results follow.
# Key:
# Experiment in all cases: glycan array binding signal (z-score within array); higher = stronger binding
# Conditions in all cases: glycan notation: IUPAC condensed, linker removed
# [1] = molecular target: Gal(b1-3)GlcNAc(b1-6)GalNAc
# Outline: (§1)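 Glycan array binding is given as a within-array Z-score, which can be read as non-binding when negative. The arrays, 3228 of them, came from the Consortium for Functional Glycomics database and were retained only where the protein sequence was available. Z-scores were averaged across arrays of the same protein sequence at different concentrations or buffers and across linkers.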
# [2] = molecular target: Gal(b1-3)GlcNAc(b1-6)[Gal(b1-3)]GalNAc
# Outline: as §1
# Gal(b1-3)GlcNAc6S = molecular target: Gal(b1-3)GlcNAc6S
# Outline: as §1
# [3] = molecular target: Gal(b1-3)[Fuc(a1-4)]GlcNAc
# Outline: as §1
# [4] = molecular target: Gal(b1-3)[Fuc(a1-4)]GlcNAc(b1-2)Man
# Outline: as §1
# [5] = molecular target: Gal(b1-3)[Fuc(a1-4)]GlcNAc(b1-2)Man(a1-3)[Gal(b1-3)[Fuc(a1-4)]GlcNAc(b1-2)Man(a1-6)]Man(b1-4)GlcNAc(b1-4)[Fuc(a1-6)]GlcNAc
# Outline: as §1
# [6] = molecular target: Gal(b1-3)[Fuc(a1-4)]GlcNAc(b1-3)Gal(b1-3)[Fuc(a1-4)]GlcNAc
# Outline: as §1
# [7] = molecular target: Gal(b1-3)[Fuc(a1-4)]GlcNAc(b1-3)Gal(b1-4)[Fuc(a1-3)]GlcNAc
# Outline: as §1
# [8] = molecular target: Gal(b1-3)[Fuc(a1-4)]GlcNAc(b1-6)GalNAc
# Outline: as §1
# [9] = molecular target: Gal(b1-3)[GlcNAc(b1-6)]GalNAc
# Outline: as §1
# [10] = molecular target: Gal(b1-3)[Neu5Ac(a2-6)]GalNAc
# Outline: as §1
# [11] = molecular target: Gal(b1-3)[Neu5Ac(a2-6)]GlcNAc(b1-4)Gal(b1-4)Glc
# Outline: as §1
# [12] = molecular target: Gal(b1-3)[Neu5Ac(b2-6)]GalNAc
# Outline: as §1
# Gal(b1-4)Gal = molecular target: Gal(b1-4)Gal
# Outline: as §1
# [13] = molecular target: Gal(b1-4)GalNAc(a1-3)[Fuc(a1-2)]Gal(b1-4)GlcNAc
# Outline: as §1
# [14] = molecular target: Gal(b1-4)GalNAc(b1-3)[Fuc(a1-2)]Gal(b1-4)GlcNAc
# Outline: as §1
# Gal(b1-4)Glc = molecular target: Gal(b1-4)Glc
# Outline: as §1
# Gal(b1-4)Glc6S = molecular target: Gal(b1-4)Glc6S
# Outline: as §1
# Gal(b1-4)GlcNAc = molecular target: Gal(b1-4)GlcNAc
# Outline: as §1
# [15] = molecular target: Gal(b1-4)GlcNAc(a1-6)Gal(b1-4)GlcNAc
# Outline: as §1
# Gal(b1-4)GlcNAc(b1-2)Man = molecular target: Gal(b1-4)GlcNAc(b1-2)Man
# Outline: as §1
# [16] = molecular target: Gal(b1-4)GlcNAc(b1-2)Man(a1-3)Man(b1-4)GlcNAc(b1-4)GlcNAc
# Outline: as §1
# [17] = molecular target: Gal(b1-4)GlcNAc(b1-2)Man(a1-3)[Gal(b1-4)GlcNAc(b1-2)Man(a1-6)]Man(b1-4)GlcNAc(b1-4)GlcNAc
# Outline: as §1
# [18] = molecular target: Gal(b1-4)GlcNAc(b1-2)Man(a1-3)[Gal(b1-4)GlcNAc(b1-2)Man(a1-6)]Man(b1-4)GlcNAc(b1-4)[Fuc(a1-6)]GlcNAc
# Outline: as §1
# [19] = molecular target: Gal(b1-4)GlcNAc(b1-2)Man(a1-3)[Gal(b1-4)GlcNAc(b1-2)Man(a1-6)][Gal(b1-4)GlcNAc(b1-4)]Man(b1-4)GlcNAc(b1-4)[Fuc(a1-6)]GlcNAc
# Outline: as §1
# [20] = molecular target: Gal(b1-4)GlcNAc(b1-2)Man(a1-3)[Gal(b1-4)GlcNAc(b1-2)Man(a1-6)][GlcNAc(b1-4)]Man(b1-4)GlcNAc(b1-4)[Fuc(a1-6)]GlcNAc
# Outline: as §1
# [21] = molecular target: Gal(b1-4)GlcNAc(b1-2)Man(a1-3)[GlcNAc(b1-2)Man(a1-6)]Man(b1-4)GlcNAc(b1-4)GlcNAc
# Outline: as §1
# [22] = molecular target: Gal(b1-4)GlcNAc(b1-2)Man(a1-3)[GlcNAc(b1-4)][Gal(b1-4)GlcNAc(b1-2)Man(a1-6)]Man(b1-4)GlcNAc(b1-4)GlcNAc
# Outline: as §1
# [23] = molecular target: Gal(b1-4)GlcNAc(b1-2)Man(a1-3)[Man(a1-6)]Man(b1-4)GlcNAc(b1-4)GlcNAc
# Outline: as §1
# [24] = molecular target: Gal(b1-4)GlcNAc(b1-2)Man(a1-6)Man(b1-4)GlcNAc(b1-4)GlcNAc
# Outline: as §1
# [25] = molecular target: Gal(b1-4)GlcNAc(b1-2)Man(a1-6)[GlcNAc(b1-2)Man(a1-3)]Man(b1-4)GlcNAc(b1-4)GlcNAc
# Outline: as §1
# [26] = molecular target: Gal(b1-4)GlcNAc(b1-2)Man(a1-6)[Man(a1-3)]Man(b1-4)GlcNAc(b1-4)GlcNAc
# Outline: as §1
# [27] = molecular target: Gal(b1-4)GlcNAc(b1-2)[Gal(b1-4)GlcNAc(b1-4)]Man(a1-3)[Gal(b1-4)GlcNAc(b1-2)Man(a1-6)]Man(b1-4)GlcNAc(b1-4)GlcNAc
# Outline: as §1
# [28] = molecular target: Gal(b1-4)GlcNAc(b1-2)[Gal(b1-4)GlcNAc(b1-4)]Man(a1-3)[Gal(b1-4)GlcNAc(b1-2)[Gal(b1-4)GlcNAc(b1-6)]Man(a1-6)]Man(b1-4)GlcNAc(b1-4)GlcNAc
# Outline: as §1
# [29] = molecular target: Gal(b1-4)GlcNAc(b1-2)[Gal(b1-4)GlcNAc(b1-4)]Man(a1-3)[GlcNAc(b1-4)][Gal(b1-4)GlcNAc(b1-2)Man(a1-6)]Man(b1-4)GlcNAc(b1-4)GlcNAc
# Outline: as §1
# [30] = molecular target: Gal(b1-4)GlcNAc(b1-2)[Gal(b1-4)GlcNAc(b1-4)]Man(a1-3)[GlcNAc(b1-4)][Gal(b1-4)GlcNAc(b1-2)[Gal(b1-4)GlcNAc(b1-6)]Man(a1-6)]Man(b1-4)GlcNAc(b1-4)GlcNAc
# Outline: as §1
# [31] = molecular target: Gal(b1-4)GlcNAc(b1-2)[Gal(b1-4)GlcNAc(b1-6)]Man(a1-6)[Gal(b1-4)GlcNAc(b1-2)Man(a1-3)]Man(b1-4)GlcNAc(b1-4)GlcNAc
# Outline: as §1
# [32] = molecular target: Gal(b1-4)GlcNAc(b1-2)[Gal(b1-4)GlcNAc(b1-6)]Man(a1-6)[Gal(b1-4)GlcNAc(b1-2)Man(a1-3)]Man(b1-4)GlcNAc(b1-4)[Fuc(a1-6)]GlcNAc
# Outline: as §1
# [33] = molecular target: Gal(b1-4)GlcNAc(b1-2)[Gal(b1-4)GlcNAc(b1-6)]Man(a1-6)[GlcNAc(b1-4)][Gal(b1-4)GlcNAc(b1-2)Man(a1-3)]Man(b1-4)GlcNAc(b1-4)GlcNAc
# Outline: as §1
# [34] = molecular target: Gal(b1-4)GlcNAc(b1-2)[Gal(b1-4)GlcNAc(b1-6)]Man(a1-6)[GlcNAc(b1-4)][Gal(b1-4)GlcNAc(b1-2)[Gal(b1-4)GlcNAc(b1-4)]Man(a1-3)]Man(b1-4)GlcNAc(b1-4)[Fuc(a1-6)]GlcNAc
# Outline: as §1
# [35] = molecular target: Gal(b1-4)GlcNAc(b1-3)Gal(b1-3)GalNAc
# Outline: as §1
# [36] = molecular target: Gal(b1-4)GlcNAc(b1-3)Gal(b1-3)GlcNAc
# Outline: as §1
# [37] = molecular target: Gal(b1-4)GlcNAc(b1-3)Gal(b1-4)Glc
# Outline: as §1
# [38] = molecular target: Gal(b1-4)GlcNAc(b1-3)Gal(b1-4)GlcNAc
# Outline: as §1
# [39] = molecular target: Gal(b1-4)GlcNAc(b1-3)Gal(b1-4)GlcNAc(b1-2)Man(a1-3)[Gal(b1-4)GlcNAc(b1-3)Gal(b1-4)GlcNAc(b1-2)Man(a1-6)]Man(b1-4)GlcNAc(b1-4)GlcNAc
# Outline: as §1
binder,measurement,setting,value
"Gal 3C (Homo sapiens), P17931 (protein) YGAPAGPLIVPYNLPLPGGVVPRMLITILGTVKPNANRIALDFQRGNDVAFHFNPRFNENNRRVIVCNTKLDNNWGREERQSVFPFESGKPFKIQVLVEPDHFKVAVNDAHLLQYNHRVKKLNEISKLGISGDIDLTSASYTMI",glycan array binding signal (z-score),[1],-0.312
same,glycan array binding signal (z-score),[2],-0.277
same,glycan array binding signal (z-score),Gal(b1-3)GlcNAc6S,-0.277
same,glycan array binding signal (z-score),[3],-0.306
same,glycan array binding signal (z-score),[4],-0.245
same,glycan array binding signal (z-score),[5],-0.276
same,glycan array binding signal (z-score),[6],-0.297
same,glycan array binding signal (z-score),[7],-0.283
same,glycan array binding signal (z-score),[8],-0.209
same,glycan array binding signal (z-score),[9],-0.251
same,glycan array binding signal (z-score),[10],-0.263
same,glycan array binding signal (z-score),[11],-0.34
same,glycan array binding signal (z-score),[12],-0.309
same,glycan array binding signal (z-score),Gal(b1-4)Gal,-0.349
same,glycan array binding signal (z-score),[13],0.464
same,glycan array binding signal (z-score),[14],-0.313
same,glycan array binding signal (z-score),Gal(b1-4)Glc,-0.301
same,glycan array binding signal (z-score),Gal(b1-4)Glc6S,-0.309
same,glycan array binding signal (z-score),Gal(b1-4)GlcNAc,-0.31
same,glycan array binding signal (z-score),[15],-0.32
same,glycan array binding signal (z-score),Gal(b1-4)GlcNAc(b1-2)Man,-0.244
same,glycan array binding signal (z-score),[16],-0.287
same,glycan array binding signal (z-score),[17],-0.328
same,glycan array binding signal (z-score),[18],-0.22
same,glycan array binding signal (z-score),[19],-0.295
same,glycan array binding signal (z-score),[20],-0.329
same,glycan array binding signal (z-score),[21],-0.285
same,glycan array binding signal (z-score),[22],-0.327
same,glycan array binding signal (z-score),[23],-0.221
same,glycan array binding signal (z-score),[24],-0.321
same,glycan array binding signal (z-score),[25],-0.308
same,glycan array binding signal (z-score),[26],-0.365
same,glycan array binding signal (z-score),[27],-0.32
same,glycan array binding signal (z-score),[28],-0.253
same,glycan array binding signal (z-score),[29],-0.345
same,glycan array binding signal (z-score),[30],-0.302
same,glycan array binding signal (z-score),[31],-0.222
same,glycan array binding signal (z-score),[32],-0.262
same,glycan array binding signal (z-score),[33],-0.314
same,glycan array binding signal (z-score),[34],-0.271
same,glycan array binding signal (z-score),[35],-0.286
same,glycan array binding signal (z-score),[36],0.127
same,glycan array binding signal (z-score),[37],-0.18
same,glycan array binding signal (z-score),[38],0.902
same,glycan array binding signal (z-score),[39],1.65
